# Laboratory results: the supplement of paper PMC11417369
# The list shows a part of the results.
# System: PF3D7_0420300 AP2 domain 1 (GST-tagged)
# Test: gcPBM binding intensity (ln(normalized median fluorescence intensity)); higher = stronger DNA binding
# Method in brief: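 GST-tagged P. falciparum DNA-binding domains produced in E. coli were incubated for 1 h on an Agilent 4 × 180k array of primer-extended double-stranded 36-bp intergenic genomic probes with negative controls. Binding intensity is the highest Masliner-normalised natural-log median intensity across replicate spots of either probe orientation, with bound protein detected by Alexa488 anti-GST antibody at 488 nm.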
row,Sequence,gcPBM binding intensity (ln)
1,ACAAAAATGAGATGGTGTACGCACAAATAAATAATA [XGTACX_site5221],9.59
2,ATATAGTTTCACATGTGTACATAAAAATACACTTGT [XGTACX_site3339],9.08
3,AAATATTTATATGTTACACACTGTTTATAATTTTCT [CACACA_site4868],9.58
4,CAATGTATTTAGAATACATGCATATTTTCATAATGT [TGCATGCA_site221],9.13
5,AATTATGCACAAATCACACATATAAAATAAAAAGTG [CACACA_site4474],9.52
6,TTTTTTATTTAAAGTAGTACTTTTTAGAAAACAAAA [XGTACX_site6759],8.59
7,ATTCTAAATATGTATATACACACTTTTAATATTCAT [CACACA_site4118],9.47
8,TTTATGAAACAGTGCACACATAAAAATAAATACATA [CACACA_site5631],9.55
9,TTATTTTAAATTAACACATGCATAATATATGTATAT [TGCATGCA_site597],9.03
10,TTTTCAAAAATATACACACACATAAATATATGTATA [CACACA_site777],9.54
11,AAAAAAATTTTAAAATGTACAAATTTTAATATATAT [XGTACX_site7628],9.02
12,GAAAATTCATAAAAATGTACTTATTATATTATTTAT [XGTACX_site2169],9.14
13,GATATATAACTTTTAACACACAAAAAAAAAAAAAAT [CACACA_site7653],9.58
14,TTATGAATATTGATGTATAAAAAAATATATATGTTA [XGTACX_negctrl_site390],9.06
15,AAAGGTTTGCGTTGTGTGCACAAAATAAATATATAA,9.43
16,TAAAATTATGTAATAACACACATATACAATACATAT [CACACA_site1236],9.65
17,AACACCAAACTAAATGTACACACATACATAAATATA [CACACA_site8298],9.75
18,AATATAAACACAAACACACACATATATATATATATA [CACACA_site4307],9.68
19,TTATTTAAACAAATCACACACAAATATAAATACATA [CACACA_site5158],9.75
20,CCATGTCAAACATTTGCACACAAAAAAATAAAAATT [CACACA_site4546],9.4
21,AGGTTGAATATATATTTGTGATTATATTATTTTATT [CACACA_negctrl_site778],9.5
22,TATATATATATATAATGTACAAACTCCTTTATATAT [XGTACX_site4545],9.22
23,TCATTCAAAAAAAATCAACACACAGTTACATAGCTC [CACACA_site8700],9.54
24,GTTTTTTTTATATATTGTACAAATAATATATTATAT [XGTACX_site29],9.42
25,TTTTAAAAAAAAAAAATAAATAAATAAGATATTATC [CACACA_negctrl_site1791],8.91
